# Experimental data from the supplement of paper PMC10681739.
# ± gives the standard deviation of the averaged measurements. Whole data set: some 4,000 sequences, median “arbitrary fluorescence units” near 830, cut for the highest 2% near 6,500. Most of the strongest results are missing from this list.
# Target: RUNX1 (UniProt Q01196)
# Assay: RUNX1 binding intensity (PBM fluorescence), RUNX1 alone (arbitrary fluorescence units); higher = stronger binding
# Conditions: RUNX1 concentration 2 nM; ETS1 concentration 0 nM
# Experimental: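 gcPBM on 36-bp genomic-derived probes (partner site mutated) containing one RUNX1 site and no ETS1 site. Recombinant human RUNX1 (2 nM) was incubated alone or with ETS1 (25 nM) and detected by anti-RUNX1 antibody fluorescence. Values are medians over 4 replicate spots (not normalised). The probes sit in constant array flanks that are not printed.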
# 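Further: Full-length recombinant human RUNX1 bound to double-stranded DNA microarray spots, detected with an Alexa488-labelled secondary antibody after the anti-RUNX1 primary, read as scanned spot fluorescence.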
# UniProt Q01196, sequence (Q01196 whole entry): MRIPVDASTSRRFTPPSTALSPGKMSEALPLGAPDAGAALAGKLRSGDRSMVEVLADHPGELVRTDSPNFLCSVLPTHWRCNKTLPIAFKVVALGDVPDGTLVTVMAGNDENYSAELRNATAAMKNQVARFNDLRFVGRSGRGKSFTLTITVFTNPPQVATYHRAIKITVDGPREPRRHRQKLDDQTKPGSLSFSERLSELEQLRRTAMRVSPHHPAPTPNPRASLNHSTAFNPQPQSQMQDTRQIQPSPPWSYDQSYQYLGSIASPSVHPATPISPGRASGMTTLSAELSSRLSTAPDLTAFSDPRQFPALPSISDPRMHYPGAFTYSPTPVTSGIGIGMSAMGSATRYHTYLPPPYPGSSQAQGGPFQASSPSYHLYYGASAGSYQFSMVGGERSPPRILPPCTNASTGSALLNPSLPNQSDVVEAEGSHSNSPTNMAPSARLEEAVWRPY
row,Sequence,RUNX1 binding intensity
1,TGAATCATTCTGAGTTACCCGTTCTGTAACCGCCCC,952
2,CTTGCCACACTGCCTCTTGTTTTGAACCACTATATT,2040
3,GGGCAGGCCGTATGTGGGAGACCACAAAGCCCAAGG,787
4,TGTTTTCGCTCTTTCTGGCCTTGCGGGCAGCCAGGA,993
5,TGGAAGAGCAAGGGGCGGAGCTGCTTTGCGGCCGGC,655
6,TAGCCACGAACCTGAAACGTTAAACCACAGCTCCGT,1060
7,ATGAACCACTGCCTGTGTGTTCCCACAGAGGTCAGG,741
8,TGAAACCTCAGATATCTGGCCACCAGCAAATGCTGT,820
9,TTCGGATTCTCGGAAGAACCCGCAGCAGCTCCCAGG,778
10,GGAGCATCCCGGGAGTCGTCACTGCGGCCGCTCCCG,680
11,ACACAGAAAGCAAAAGTTAAGCTATAAAACCCGCAA,943
12,CTGACTGTGGTAAACCGATCTGGCTTCAGGCAGTCC,897
13,GACAAAGACCGCAAAAAGATCCTTGAACGTAAAGCC,3010
14,AGTGGCGTGGTTTGGGGCTTTATAGCCGGGAGGAGC,771
15,CTGCACAAGGAGGCGCCTGTGTTGCTGTGGGCGGAG,719
16,GGCAACCTGAGCTGCCGTGTAAAACCACAGTGTGAC,938
17,CCTCGCCCCCTGCCGCACCCACCCCACCGCGCTCCG,1540
18,CCGATTCCTTAGAGGTTAAGTGGTGGTGGTTCAGTT,809
19,ATTTCCATTTACGGACTCTTCTCCTGCCCGCAGGGC,1020
20,ATTGGTTTCTGTGGTTGACGAGGCATCAGGTCTATG,1980
21,TTAAACACGGAGGTGCATCGGTTGTTGTGGTTATTC,804
22,CTGCAGTCACCCACAGCTCACTGCCGCTCTCCACTT,1100
23,GTGAGGTTTGTGGTTGGAATCCACTGCCTCTGGTTT,1580
24,CTGAGGCGCGCCGTAAGGGCTAGCGGTCCCAGCATA,657
25,GAAGGGGAGGTCCAGGAGCATGGGTGGTTTTTTTCC,804
26,GAGGGAGGTGAATCAGGCGCCGGGTAGTGGGTTGCT,720
27,TCAGCAAGACCACAAACCCACCTGAAAGAAGAAACT,1470

row,Sequence,RUNX1 binding intensity
1,GAGAGAGGCATGAAGTGTTGTGGTTATTGTTTGAGC,1040
2,CCACTAGCAGCAAAACGGGCCGAGGGACCGCAAGCA,821
3,ACCCTTGCTGGAGCATTGTCGCAGCAACCACAACAG,942
4,CGGGCTGGGATGAATTGATGGCTGACCACAGAGGAG,960
5,GAACCCCAGAAACCGCGAGCCGTTGCCTTTCTCTTC,3010
6,TGTCTGAGGTTTCTCTGTGAACATGAAGCTGAGAAC,790
7,GTGCTGCGGTGCTAGAGCGCGGCGCGACCGTACGCT,735
8,TATCACATGCTGCTGGACAAAAAGGCCAAACCACCT,873
9,TGGGGACAGGCAATGTTTACTGCCTGTGGCTTGCTG,677
10,ATGGTCCAGCAAGATAAGGGCTGAAAACCACCCACT,773
11,TCTCGGCCGCGGCCGCAGCACCCGGGAGCTGAGGGG,727
12,GCGGAGCTTGTGGGCCAGGAGGACTTTCGGGTGGGT,702
13,GGGCTCCCCGGGTACAAAAATGGCTGTGGCTAGCGA,687
14,GGGCTGCGGCGCTGGAATTGGACCAATCCAGAATCG,695
15,GGCAACAACCACAAATCAGTGCGCCGGCCTCCTTAT,1530
16,CAGTGGCTTGCTCCCCACCTCCTACCACATTCAATG,965
17,TAACTTGAACGTCCTTTTGACCACCTGTACGGTATA,917
18,CCTGTGCTGCGGGCTCAGGCGGGACCCGAAACGGTC,789
19,GTCACAGCCGCAGAGCGCCCGAATTCCCAGAAGGCA,859
20,GTTAACAAAACCACACACCTCAGGCTTCGTCCCCAG,1860
21,GGGCCGCGGTCAGGGCTGGCCACGTGAAGCAGACAG,983
22,TTATTCCCGGTGTTGATCTTTTTAGTGGTACCAGGC,912
23,ACATCTCCGTTCAGCTCAGTGTTCGCGGTGCGAGAC,810
24,GTGTGGAAGGAGCAAGCGAGAATGTGGTTACTTAGG,820
25,CCCTGGAACCGAAGGCCACCTCTTGCGGCTGCGAGC,839
26,GGGCTTGACCGCCATGTTTGAAGCGGGCGCAAAAAA,758
27,TTGAAGCGGCGGTTCGATGCGAAAGTGGCGGGTGCA,690

row,Sequence,RUNX1 binding intensity
1,AGCGGCTGAACCACGCGCGGGAGCTGGTGCGGTCGG,806
2,TGCCCGCGGGCCGCAGCCTCCGTATTTGCGCGTTTT,864
3,AACCCACCGAATGGAAGCTGCCACTCAGCCGCAGGA,944
4,CATTTCACGTTCCACTGACTTTCTGTGGGGCCCCAA,997
5,GTGCTAGGACACACGAAGCGATACCACAAAGAACAT,861
6,TGTCGGGCGCATGTGTACCGGCGGTAATATAGTAAG,754
7,ACCCAGCTGTGGTTTGATCTCACACTGCCTTCACAC,1330
8,GACACTCAGCCTGACTCCACTCGCCCGCAGGCAGGC,936
9,GCTGCGCAGAGGAGACCAGGCTTGTTGGTTTTCATG,667
10,GTGGGAGCGCAAGCCTGAGCGGCCTGCGGCCTCCGG,727 ± 36
11,CCGACCGCATTTTACGTGGTGCTGCATTCCCGGTAG,1320
12,CTGATTGGCTGCGGCCAGGCCGTTTCAGGTGGAGCT,735
13,ATGCTGGACGTGGTTGCATAGTATCTCCTAACGGAG,718
14,GATGGGCTGGGGATCTGGCCTGTTTGCCGCAGGCGA,710
15,GGCACACTGCGGTTGCACCATAAGCTTGCTGGATGG,3250
16,GCAGAGTAACCCACTCTAGTTGTCCCATCCTTAAGC,952
17,GCCTTTGGAAACCACAGCTTCCACTTTCGCTGAGGG,1820
18,TCTGTGGGTTTACCTGTTCTGGATATTGCCTGTAAA,969
19,TGAGGGCATAGAAAGTGATGGCCGCAAGGGGATGCC,723
20,GGAGGAAGGCAGCAAAGAAAGAGGTGGTTTCGGCAC,783
21,AGCCGCGCCGCAGCCGCTCAGTGCACCCGGGGCCCC,814
22,ACCTCTCTCACCTCCTACCAGAGAACCACAGCCAAG,1480
23,GGCCCCTGCTTACGGGTGTGACGCGAACCGCGGGCA,717
24,CTATTGTGGTATTAAAAAGAGAGGCTGGGGGGAGTG,1290
25,ACAATAGGAGGCTTCTCTGTGATTTTGAGCCACAAA,830
26,CGAAGTGCGCGGGTTGGAGCGGGAGCGCACGCCTGC,693
